Measured values published in patent US9944700B2, “Notch2 binding molecules for treating respiratory diseases” (NOVARTIS AG, priority 2013, dated 2018).

What was measured:
[1] = test system: Human airway basal cells grown in 3D; test: 3D bronchosphere cultures treated with Notch receptor-specific blocking antibodies, qPCR of cell type markers; format: cell-based
Method: Human bronchial epithelial (HBE) cells and culture media were obtained from Lonza. Air-liquid interface cultures using passage 2 (P2) cells were performed as previously described (Danahay, H. et al., American journal of physiology. Lung cellular and molecular physiology 282, L226-236 (2002)). For three-dimensional culturing of HBE cells, P1 cells were trypsinized and resuspended (30,000 cells/ml) in HBE differentiation media containing 5% growth factor-reduced Matrigel (BD Biosciences). 20 μl of suspension was plated in each well of a 384-well plate (Greiner) pre-coated with 10 μl of a 25% solution of Matrigel (BD Biosciences) in HBE differentiation media. Wells were fed or treated at day 2 and day 8 of culture by adding 30 μl of differentiation media containing the appropriate treatment. Three-dimensional cultures were analyzed at the time points indicated.
RNA was isolated from 3D bronchosphere cultures with Trizol (Invitrogen), using manufacturer's specifications. To isolate RNA from mouse tissue, approximately 20 mg of tissue was placed in a 1.5 ml eppendorf tube with 1 ml of Buffer RLT Plus (Qiagen). A 5 mm stainless steel bead (Qiagen) was added to the tube, and the tissue was sheared using a Tissue Lyser II (Qiagen). RNA from the sheared tissue was purified using the RNeasy Plus Mini Kit (Qiagen), using manufacturer's specifications. TaqMan Reverse Trascription Reagents (Invitrogen) were used to generate cDNA from 1 μg of total RNA. Quantitative PCR was performed on a ViiA7 Real-Time PCR System (Applied Biosystems), using 40 ng of cDNA per reaction with the following Taqman probes (Applied Biosystems): MUC5AC, Hs01365601_m1; MUC5B, Hs00861588_m1; FOXA3, Hs00270130_m1; FOXJ1, Hs00230964_m1; DNAI2, Hs01001544_m1; TP63, Hs00978340_m1; ITGA6, Hs01041011_m1; GAPDH, Hs99999905_m1; Muc5ac, Mm012718_m1; Foxj1, Mm012367279_m1; Trp63, Mm00495788_m1; Gapdh, Mm99999915_g1. […]

[2] = test system: established IL-13-driven goblet cell metaplasia; test: Therapeutic treatment with anti-Notch2 antibody in vivo (IL-13 mouse model); conditions: antibody D3 20 mg/kg i.p. days 4, 6, 8, 10
Method: RNA was isolated from 3D bronchosphere cultures with Trizol (Invitrogen), using manufacturer's specifications. To isolate RNA from mouse tissue, approximately 20 mg of tissue was placed in a 1.5 ml eppendorf tube with 1 ml of Buffer RLT Plus (Qiagen). A 5 mm stainless steel bead (Qiagen) was added to the tube, and the tissue was sheared using a Tissue Lyser II (Qiagen). RNA from the sheared tissue was purified using the RNeasy Plus Mini Kit (Qiagen), using manufacturer's specifications. TaqMan Reverse Trascription Reagents (Invitrogen) were used to generate cDNA from 1 μg of total RNA. Quantitative PCR was performed on a ViiA7 Real-Time PCR System (Applied Biosystems), using 40 ng of cDNA per reaction with the following Taqman probes (Applied Biosystems): MUC5AC, Hs01365601_m1; MUC5B, Hs00861588_m1; FOXA3, Hs00270130_m1; FOXJ1, Hs00230964_m1; DNAI2, Hs01001544_m1; TP63, Hs00978340_m1; ITGA6, Hs01041011_m1; GAPDH, Hs99999905_m1; Muc5ac, Mm012718_m1; Foxj1, Mm012367279_m1; Trp63, Mm00495788_m1; Gapdh, Mm99999915_g1.
Female Balb/c mice (20-25 g) were obtained from Charles River (Morgate, UK). Mice were housed under specific pathogen free conditions and were provided with food and water ad libitum. Experiments were performed in accordance with the UK Animals Scientific Procedures Act 1986.
Mice received 0.5 μg of recombinant mouse IL-13 (Ebiosciences, UK) or phosphate-buffered saline (PBS) intranasally on 10 consecutive (days 1-10). Mice received either 20 mg/kg neutralizing anti-Notch2 antibody α-N2 (antibody D3 above) or isotype control IgG, intraperitoneally 2 hours before intranasal challenge with either IL-13 or PBS, on days 4, 6, 8 & 10 only. An additional group of mice received 0.5 μg of recombinant mouse IL-13 (Ebiosciences, UK) or phosphate-buffered saline (PBS) intranasally on 3 consecutive (days 1-3) only.
Mice were euthanized 24 hours after their final PBS or IL-13 administration. The left lungs were excised, inflated with 10% neutral buffered formalin (NBF) and preserved in NBF. Lungs were embedded in paraffin wax and lung sections obtained for each animal. Sections were stained with PAS stain for mucus.
PAS-positive staining was quantified in lung sections using Definiens Image Analysis software. Two distinct lung sections were analyzed per mouse and the total area of PAS positive staining within the sections was determined. The PAS positive staining was normalized to the area of tissue analyzed and represented as ‘Relative Area PAS Positive Mucus (%)’.
Data are expressed as mean±SEM. Statistical significance was determined using a parametric one way ANOVA and Dunnetts post-test. GraphPad Prism (version 5.04) was used to generate graphs and perform statistical analysis. ***p<0.001 denotes statistically significant difference from the isotype control group.

B1: D3: anti-Notch2 antagonist IgG1 antibody, heavy chain SEQ ID NO: 3 (N-terminal glutamine), light chain SEQ ID NO: 4; sole antibody in therapeutic models (antibody)
heavy: QVQLVESGGGLVQPGGSLRLSCAAGYTFSSYGMSWVRQAPGKGLEWVSYIYPYSGATYYADSVKGRFTISADTSKNTAYLQMNSLRAEDTAVYYCARHSGYYRISSAMDVWGQGTLVTVSSASTKGPSVFPLAPSSKSTSGGTAALGCLVKDYFPEPVTVSWNSGALTSGVHTFPAVLQSSGLYSLSSVVTVPSSSLGTQTYICNVNHKPSNTKVDKRV[not shown - human IgG1 Fc]
light: DIQMTQSPSSLSASVGDRVTITCRASQNIKRFLAWYQQKPGKAPKLLIYGASTRESGVPSRFSGSGSGTDFTLTISSLQPEDFATYYCQQYYRSPHTFGQGTKVEIKRTVAAPSVFIFPPSDEQLKSGTASVVCLLNNFYPREAKVQWKVDNALQSGNSQESVTEQDSKDSTYSLSSTLTLSKADYEKHKVYACEVTHQGLSSPVTKSFNRGEC
modifications: Synthetic human sequence
[1]; FIG. 4c
  effect on basal cell markers p63 and ITGA6: Neither antibody showed any significant effect
[1]; compared with IgG control or anti-Notch1 / anti-Notch3 antibodies, FIG. 4a
  goblet cell formation: expression of goblet cell markers MUC5AC, MUC5B and FOXA3: decreased
[1]; compared with IgG control or anti-Notch1 / anti-Notch3 antibodies, FIG. 4b
  ciliated cell formation: expression of ciliated cells markers FOXJ1 and DNAI2: increasing
[2]; FIG. 7c bottom
  effect on basal cell marker Trp63, qPCR of whole lung tissue: no effect
[2]; FIG. 7c middle
  ciliated cell marker Foxj1, qPCR of whole lung tissue: concomitant increase
[2]; IL-13 intranasally days 1-10, FIG. 7a, 7b
  established goblet cell formation (PAS staining of lung sections): reversed
[2]; confirms reversal, FIG. 7c top
  Muc5ac expression levels, qPCR of whole lung tissue RNA: verified this observation
